Results from the supplement of paper PMC8728848.
Only a selection was taken, and the strongest signals are over-represented in it overall.

Key:
Assay in all cases: glycan array binding signal (z-score within array); higher = stronger binding
Conditions in all cases: glycan notation: IUPAC condensed, linker removed
Fuc(a1-2)Gal(b1-3)GalNAc = biological target: Fuc(a1-2)Gal(b1-3)GalNAc
Summary of the method: (§1)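 The binding signal is a Z-score computed within each array. Data were drawn from 3228 arrays in the Consortium for Functional Glycomics database, restricted to those with a known protein sequence. Scores were averaged over arrays of the same protein sequence at different concentrations or buffers, and over linkers, and negative values can be taken as non-binding.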

[1] = biological target: Fuc(a1-2)Gal(b1-3)GalNAc(b1-3)Gal
Summary of the method: as §1

[2] = biological target: Fuc(a1-2)Gal(b1-3)GlcNAc(b1-3)[Fuc(a1-2)Gal(b1-3)GlcNAc(b1-6)]GalNAc
Summary of the method: as §1

[3] = biological target: Fuc(a1-2)[Gal(a1-3)]Gal(b1-3)GalNAc(b1-3)Gal(a1-4)Gal(b1-4)Glc
Summary of the method: as §1

[4] = biological target: Fuc(a1-2)[GalNAc(a1-3)]Gal(b1-3)GalNAc(b1-3)Gal(a1-4)Gal(b1-4)Glc
Summary of the method: as §1

[5] = biological target: Fuc(a1-2)[GalNAc(a1-3)]Gal(b1-4)GlcNAc(b1-2)Man(a1-3)[Fuc(a1-2)[GalNAc(a1-3)]Gal(b1-4)GlcNAc(b1-2)Man(a1-6)]Man(b1-4)GlcNAc(b1-4)[Fuc(a1-6)]GlcNAc
Summary of the method: as §1

[6] = biological target: Fuc(a1-2)[GalNAc(a1-3)]Gal(b1-4)GlcNAc(b1-3)Gal(b1-4)GlcNAc
Summary of the method: as §1

[7] = biological target: Fuc(a1-2)[GalNAc(a1-4)]Gal(b1-4)GlcNAc
Summary of the method: as §1

[8] = biological target: Fuc(a1-3)[Gal(b1-4)]GlcNAc(b1-3)Gal(b1-3)[Fuc(a1-4)]GlcNAc
Summary of the method: as §1

Gal(a1-2)Gal = biological target: Gal(a1-2)Gal
Summary of the method: as §1

[9] = biological target: Gal(a1-3)Gal(b1-3)GlcNAc(b1-2)Man
Summary of the method: as §1

Gal(a1-3)Gal(b1-4)GlcNAc = biological target: Gal(a1-3)Gal(b1-4)GlcNAc
Summary of the method: as §1

[10] = biological target: Gal(a1-4)Gal(b1-3)GlcNAc(b1-2)Man(a1-3)[Gal(a1-4)Gal(b1-3)GlcNAc(b1-2)Man(a1-6)]Man(b1-4)GlcNAc(b1-4)GlcNAc
Summary of the method: as §1

Gal(a1-4)GlcNAc = biological target: Gal(a1-4)GlcNAc
Summary of the method: as §1

Gal(b1-3)GalNAc(b1-3)Gal = biological target: Gal(b1-3)GalNAc(b1-3)Gal
Summary of the method: as §1

[11] = biological target: Gal(b1-3)GlcNAc(b1-2)[Gal(b1-3)GlcNAc(b1-6)]Man(a1-6)[Gal(b1-3)GlcNAc(b1-2)Man(a1-3)]Man(b1-4)GlcNAc(b1-4)GlcNAc
Summary of the method: as §1

[12] = biological target: Gal(b1-3)GlcNAc(b1-3)Gal(b1-4)[Fuc(a1-3)]GlcNAc
Summary of the method: as §1

[13] = biological target: Gal(b1-4)GlcNAc(b1-2)Man(a1-3)Man(b1-4)GlcNAc(b1-4)GlcNAc
Summary of the method: as §1

[14] = biological target: Gal(b1-4)GlcNAc(b1-2)Man(a1-3)[Man(a1-6)]Man(b1-4)GlcNAc(b1-4)GlcNAc
Summary of the method: as §1

[15] = biological target: Gal(b1-4)GlcNAc(b1-2)Man(a1-6)[GlcNAc(b1-2)Man(a1-3)]Man(b1-4)GlcNAc(b1-4)GlcNAc
Summary of the method: as §1

[16] = biological target: Gal(b1-4)GlcNAc(b1-2)[Gal(b1-4)GlcNAc(b1-4)]Man(a1-3)[GlcNAc(b1-4)][Gal(b1-4)GlcNAc(b1-2)Man(a1-6)]Man(b1-4)GlcNAc(b1-4)GlcNAc
Summary of the method: as §1

[17] = biological target: Gal(b1-4)GlcNAc(b1-3)Gal(b1-4)GlcNAc(b1-3)Gal(b1-4)GlcNAc(b1-2)Man(a1-3)[Gal(b1-4)GlcNAc(b1-3)Gal(b1-4)GlcNAc(b1-3)Gal(b1-4)GlcNAc(b1-2)Man(a1-6)]Man(b1-4)GlcNAc(b1-4)[Fuc(a1-6)]GlcNAc
Summary of the method: as §1

[18] = biological target: Gal(b1-4)GlcNAc(b1-3)Gal(b1-4)GlcNAc(b1-3)Gal(b1-4)GlcNAc(b1-3)Gal(b1-4)GlcNAc(b1-3)Gal(b1-4)GlcNAc(b1-3)Gal(b1-4)GlcNAc(b1-2)Man(a1-3)[Gal(b1-4)GlcNAc(b1-3)Gal(b1-4)GlcNAc(b1-3)Gal(b1-4)GlcNAc(b1-3)Gal(b1-4)GlcNAc(b1-3)Gal(b1-4)GlcNAc(b1-3)Gal(b1-4)GlcNAc(b1-2)Man(a1-6)]Man(b1-4)GlcNAc(b1-4)GlcNAc
Summary of the method: as §1

[19] = biological target: Gal(b1-4)GlcNAc(b1-3)Gal(b1-4)GlcNAc(b1-3)[Gal(b1-4)GlcNAc(b1-3)Gal(b1-4)GlcNAc(b1-6)]GalNAc
Summary of the method: as §1

GalNAc(a1-3)Gal = biological target: GalNAc(a1-3)Gal
Summary of the method: as §1

B1: SBA (Glycine max), P05046 (protein)
chain: MATSKLKTQNVVVSLSLTLTLVLVLLTSKANSAETVSFSWNKFVPKQPNMILQGDAIVTSSGKLQLNKVDENGTPKPSSLGRALYSTPIHIWDKETGSVASFAASFNFTFYAPDTKRLADGLAFFLAPIDTKPQTHAGYLGLFNENESGDQVVAVEFDTFRNSWDPPNPHIGINVNSIRSIKTTSWDLANNKVAKVLITYDASTSLLVASLVYPSQRTSNILSDVVDLKTSLPEWVRIGFSAATGLDIPGESHDVLSWSFASNLPHASSNIDPLDLTSFVLHEAI
glycan array binding signal (z-score) (Fuc(a1-2)Gal(b1-3)GalNAc): -0.147 | glycan array binding signal (z-score) [1]: -0.072 | glycan array binding signal (z-score) [2]: -0.208 | glycan array binding signal (z-score) [3]: -0.266 | glycan array binding signal (z-score) [4]: -0.273 | glycan array binding signal (z-score) [5]: -0.199 | glycan array binding signal (z-score) [6]: -0.15 | glycan array binding signal (z-score) [7]: 3.24 | glycan array binding signal (z-score) [8]: -0.048 | glycan array binding signal (z-score) (Gal(a1-2)Gal): -0.111 | glycan array binding signal (z-score) [9]: -0.268 | glycan array binding signal (z-score) (Gal(a1-3)Gal(b1-4)GlcNAc): -0.14 | glycan array binding signal (z-score) [10]: 8.24 | glycan array binding signal (z-score) (Gal(a1-4)GlcNAc): 0.265 | glycan array binding signal (z-score) (Gal(b1-3)GalNAc(b1-3)Gal): -0.309 | glycan array binding signal (z-score) [11]: -0.195 | glycan array binding signal (z-score) [12]: -0.147 | glycan array binding signal (z-score) [13]: -0.11 | glycan array binding signal (z-score) [14]: -0.171 | glycan array binding signal (z-score) [15]: -0.177 | glycan array binding signal (z-score) [16]: -0.215 | glycan array binding signal (z-score) [17]: -0.136 | glycan array binding signal (z-score) [18]: -0.133 | glycan array binding signal (z-score) [19]: 0.044 | glycan array binding signal (z-score) (GalNAc(a1-3)Gal): 5.43
